According to patent US12551573B2, “Compositions and methods for the targeting of PCSK9” (Scribe Therapeutics Inc., priority 2022, dated 2026):
Numbering of substitutions follows the chain as printed. Like-named read-outs stand apart in the source and are kept apart here.

B1: DOMAIN_761 (protein, listed as Pan paniscus)
chain: MMTAVSLTTRPQESVAFEDVAVYFTTKEWAIMVPAERALYRDVMLENYEAVAFVVPPTSKPALVSHLEQGKESCFTQPQGV
B2: DOMAIN_24212 (protein)
chain: KQVSISFEDVTVDFSREEWQHLDPAQRCLYRDVTLENYSHLLSVGYQVPKPEIIFQLEQGEGPWMLERETPHQSCSDEDIG
modifications: Pteropus alecto
B3: DOMAIN_24230 (protein, listed as Muntiacus reevesi)
chain: SQSPLTFGDVAVEFSGDEWAWLDSAQRSLHRSVMLENYRNLASLGLCMSKPEMISSLEQSKEPWAVKAKSTRGRCPGLEAI
B4: DOMAIN_24256 (protein)
chain: VTFEDVAVYFSWEEWGLLDEAQRCLYQDVMLENLALINSLGLRHGAEDEDAPEHRVSVQAASQVGTRKAVVSPQKAHPREV
modifications: Ursus arctos
B5: DOMAIN_24282 (protein, listed as Muntiacus reevesi)
chain: QAEVTFEDVAVLLSQEEWGLLGPSQKGLYREVMLETYRNLLSLGVGLADPKPEVIVQLERGDELWVLDMHGAEQPSVDGSA
B6: DOMAIN_24306 (protein, listed as Propithecus coquereli)
chain: PKAPVTFGDVAIYFSKEEWECLSPNQKDLYEDVMMENYQNLASIGFSCRRPNVITLLEKGEAPWMAEPLRRRQGPDSGSKK
B7: DOMAIN_24317 (protein, listed as Myotis brandtii)
chain: LDAPVTFEDVAVYFSENEWTCLTCPQRALYRDVMLENYGAVASLAFLFPKPALISRLERGEAPWCSAPQGALDGEGWKGVS
B8: DOMAIN_24379 (protein, listed as Macaca nemestrina)
chain: GRVTFRDVAVEFSLAEWKCLNPVQRALYREVMLENYRNLEFVDSSLKSMMEFSSHEHSNTGEGFHTGTLERHKSYHIGDFW
B9: DOMAIN_24393 (protein, listed as Propithecus coquereli)
chain: SLGSELFRDVAIVFSQEEWQWLAPAQRDLYRDVMLETYSNLVSLGLAISKPDVISFLEQGKEPWMVERVATGDLCPVLESG
B10: DOMAIN_24463 (protein, listed as Balaenoptera acutorostrata)
chain: LQEAVTFEDVAVNFSNEEWQCLTHAQRHLYKDVMLENYGNVVSLGFPFPKPPLISHLEQEAELCAQDRQDREFLSCSYPVS
B11: DOMAIN_784 (protein, listed as Pan paniscus)
chain: MELLTFKDVAIEFSPEEWKCLDTSQQNLYRDVMLENYRNLVSLGVTISNPDLVTCLEQRKEPYNLKIHETAARPPGHYRKR
B12: DOMAIN_24496 (protein, listed as Ursus americanus)
chain: RPGAVSFADVAVYFSPEEWGCLRPAQRALYREVMRETYGHLGALGFPGPKPALISWMEQESEAWSPDAQDPEEGESLGGAL
B13: DOMAIN_24518 (protein, listed as Balaenoptera acutorostrata)
chain: B12 chain with R1K, G3A, P16V, E32D, D67A
B14: DOMAIN_24546 (protein, listed as Ursus americanus)
chain: VLGLVTFGDVAIDFSREEWEWLNSAQRTLHRDVMLENYRNLVSLGLCVSKPDMISSLEQRKEPWMVKRKLTRGRCPDLKTM
B15: DOMAIN_24570 (protein, listed as Saimiri boliviensis)
chain: PQKSVTFEDVAVYFTQAEWDGLSPAQRTLYRDVMLENYGNVASLGFPLLKPAVISQLEGGGELGGPSPLAAGTGLRGLWTV
B16: DOMAIN_24571 (protein, listed as Balaenoptera acutorostrata)
chain: PLESVTFEDVAINFTQEEWALLDTSQRNLFRNVMLENISHLVSIGYQISKSDVISQLKQGKELRKSTVSKQCGKSLSQGSF
B17: DOMAIN_24600 (protein, listed as Ursus americanus)
chain: QCGLLTFGDVAIEFSQEEWRCLSHTQRELYRDVMLENYGHLLFLGLIVSKPDLVSLLEQSKEPWDVRRKKTQRPSVLMGHV
B18: DOMAIN_24614 (protein, listed as Cervus elaphus)
chain: PQDLMTFEDVAVEFTWWEWGQLDPAQKDLYREVMLENFKNLASLGFPVSKPYMICQLEEGEEPCILEREISTGVHSDWERR
B19: DOMAIN_24653 (protein, listed as Cervus elaphus)
chain: TPQTLKPRAPGACSRARSPGPGIQDSDAVGSVTFEDVAVYFSWEEWALLDEAQRCLYHDVMLENFALTSSLGGPTGGGRVV
B20: DOMAIN_24677 (protein, listed as Lynx pardinus)
chain: SKVPVTFGDLAIYFSQEEWEWLSPIQKDLYEDVMLENYQNLVSLGLSFRRPNVITLLEKGRAPWMVEPVRKRRVLDSRSKY
B21: DOMAIN_24719 (protein, listed as Muntiacus reevesi)
chain: CNMSLSFSDVAVDLSQEEWECMSPAQRALYRDVMLENYSNLVSLGCSTPKPDMITLLEQEKEPWMILREGTGSWFTDLESE
B22: DOMAIN_24725 (protein)
chain: RPGAVSFADVAVYFSPEEWGCLRPAQRALYRNVMRETYGHLGALGFAGPKPALISWLERKKEVWSPEAEDPEAGARHPGSG
modifications: Ursus arctos
B23: DOMAIN_24771 (protein, listed as Myotis brandtii)
chain: FQEVVTFEDVAVHFTQAEWAGLSSAQRALHRSVMLENYGNLTSLGYTVPNSALISLLEGRDLPWGLEAQNDPPAERSTHVC
B24: DOMAIN_24786 (protein, listed as Vombatus ursinus)
chain: FQESVTFKDVAVDFTQEEWAQLDPPQRNLYRDVMLENYEHFVFLGLPVAKPEVISQLERGEVPLFPEQPEFSTSICPDSLN
B25: DOMAIN_24788 (protein, listed as Vombatus ursinus)
chain: FQESVTFKDVAVEFTGEEWRQLDRAQRSLFRDVMLENYRNLVSLGLTVAKPNLIFLLERGEAPWTLQRQIPGGTSSDCPCW
B26: DOMAIN_802 (protein, listed as Pan paniscus)
chain: MAAGQREARPQVSLTFEDVAVLFTRDEWRKLAPSQRNLYRDVMLENYRNLVSLGLPFTKPKVISLLQQGEDPWEVEKDGSG
B27: DOMAIN_24867 (protein)
chain: TQEHVTFRDVAVFFSQDEWLHLDSAQRALYREVMLENYSSLVSLGIPFSMPKLIHQLQQGEDPCMVEREVSADTCLGFKTW
modifications: Nomascus leucogenys
B28: DOMAIN_24939 (protein, listed as Phascolarctos cinereus)
chain: PQEQVTFSDVAVDFTVEEWGRLAPAQKELYRSVMLENYRNLVCLGLAASSPDVIGQLERGEGPWRVEGKVRKGLCADQKTS
B29: DOMAIN_24947 (protein, listed as Ursus maritimus)
chain: ASCGLLTFRDVAIEFSQEEWRCLSHTQRELYRDVMLENYGHLLFLGLIVSKPDLVSFLELRKDPWDVKRRKTAGFDPGRWQ
B30: DOMAIN_24975 (protein)
chain: RPRAVKFGDVALYFSREEWGCLRPAQRALYRDVMQETYGHLGALGCAGPKPALISWLERNTDDWEPAALDPQQCPKGVAVQ
modifications: Muntiacus muntjak
B31: DOMAIN_24993 (protein, listed as Oryctolagus cuniculus)
chain: KPAAVSFADVAVYFSPEEWGCLRPAQRALYREVMRETYGLLGALGGGGTKPALICWVERDAELWGPDAQDPAAAAARGYGT
B32: DOMAIN_25016 (protein, listed as Oryctolagus cuniculus)
chain: SLGPVSFKDVAVGFTQEEWRQLEPAQRRTYREVMLENYSHLVAVGCHFIKPDVITKLERGEEPWIEGGFLPQGCAGDEVWQ
B33: DOMAIN_25052 (protein)
chain: LFESVSFKDVTIDFSWEEWQQLDFAQKSLYRDVMLENYFNLISVGCQVPKPEVIFNLEQVENPCMLHRKISRQSCLDGDIG
modifications: Pteropus alecto
B34: DOMAIN_25060 (protein, listed as Ailuropoda melanoleuca)
chain: PQVLVSFEDVAVFLSREEWGCLGPAQRGLYRDVMLETYRNLISLGFQDSKPDVISKLEKGEEPWAPYSPRIEEGWIWSHGS
B35: DOMAIN_811 (protein, listed as Pan paniscus)
chain: GSQGNLPQAEITLMNQAQESVTFEDVAVNFTNREWQCLTYAQRHLYKDVMLENYGNMVSLGFPFPKPPLISHLEREVDPCV
B36: DOMAIN_25063 (protein, listed as Phascolarctos cinereus)
chain: SHESVTFKDVAVDFTWEEWGYLDTSQKELYWEVMLENYRNLVSLGLADSNVDMISQLESGEAHGIPVDSVLRSCWPDGDTR
B37: DOMAIN_25091 (protein, listed as Phascolarctos cinereus)
chain: VQESVTFRDLAVDFDMEEWGYLCPSQKELYREVMLENYRHLVSLGLLEAKPDLISRLEQEEPQVWEVQEGASGSVCACTGG
B38: DOMAIN_25094 (protein, listed as Phascolarctos cinereus)
chain: SQESLTFKDVAVDFTQEEWGKLDSGQRYLYRDVMLENYRNLVSLGHQGSKPYVISQLEQGQEPWIVEREISRGNCKDWGTR

Test system: HBEGF locus
Format: cell-based, human
Details: high-throughput screen of dXR repression of the HBEGF gene
[1] = change in abundance of each domain in the library before and after diphtheria toxin selection
[2] = abundance of each domain in the library before vs after diphtheria toxin selection, listed domains met p-value <0.01 and log2(fold change) >2

Molecule	Log2 (fold change) [1]	Log2 (fold change) [2]
B1	3.181	–
B2	–	2.498
B3	–	3.1832
B4	–	2.7933
B5	–	2.694
B6	–	3.2084
B7	–	3.9767
B8	–	2.4643
B9	–	3.8008
B10	–	2.5362
B11	2.4886	–
B12	–	3.6403
B13	–	3.4135
B14	–	3.4262
B15	–	3.6773
B16	–	2.6912
B17	–	3.156
B18	–	2.6295
B19	–	2.9883

Molecule	Log2 (fold change) [1]	Log2 (fold change) [2]
B20	–	2.3115
B21	–	2.7499
B22	–	3.4496
B23	–	3.3701
B24	–	2.9237
B25	–	2.7694
B26	2.6563	–
B27	–	3.469
B28	–	3.3066
B29	–	2.9491
B30	–	3.2737
B31	–	3.3817
B32	–	2.9822
B33	–	2.3634
B34	–	3.6002
B35	2.4706	–
B36	–	2.9436
B37	–	2.9006
B38	–	3.0413
